Experimental data as given in PubChem BioAssay AID686971 (National Center for Advancing Translational Sciences (NCATS), 2013).
In all, about 360,000 compounds went through this assay and about 7,500 (2.1%) were called active. The shares of active, inactive and inconclusive entries below differ from those in the screen. Calls follow the shape of the dose curve; as a rule, active = well fitted cell-killing curve with a large enough effect; inconclusive = small, poorly fitted or top-dose-only effect, or effect the other way, or another doubt; inactive = no such curve, though single readings can be large or run the other way. Potencies of inconclusive entries are left out as doubtful fits.

assay: qHTS for induction of synthetic lethality in tumor cells producing 2HG: qHTS for the HT-1080-IDH1KD cell line; conditions: HT-1080 IDH1 knockdown viability, ATP luminescence, 48 h; activity, negative = toxicity: at 46.1 µM (top of the series) unless noted;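 as to activity, negative = toxicity: 0% = DMSO wells and -100% = cell-free medium wells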
In short: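 % activity derives from luminescence (CellTiter-Glo), normalised to DMSO and no-cell wells. HT-1080-IDH1KD cells, 750/well, had 48 h compound exposure at 37 °C.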
Potency is read from the fitted curve at half-maximal effect; tags tell the direction and shape of the fitted curve.

SMILES	Potency	activity, negative = toxicity
Cc1cc([N+](=O)[O-])ccc1NCc1cccc([N+](=O)[O-])c1	inconclusive [cytotoxic, single point]	–
CN(Cc1nc(-c2ccc(C(F)(F)F)cc2)no1)C1CCOCC1	–	inactive: 9.21%
CC1CC(C)CN(CCCCOc2ccc([N+](=O)[O-])cc2)C1 (centres undefined)	–	inactive: -0.722%
O=C(COC(=O)c1ccccc1Nc1ccccc1)Nc1ccccc1	inconclusive [cytotoxic, single point]	–
COc1ccccc1N1CCN(C(=O)c2cc(C(C)(C)C)oc2C)CC1	–	inactive: -14.6%
Cc1cc2cc(C(c3nnnn3C3CCCC3)N(Cc3cccnc3)Cc3ccco3)c(=O)[nH]c2cc1C (centres undefined)	active: 10 µM	–
O=C(Nc1ccc(C2CC2(Cl)Cl)cc1)c1cccc([N+](=O)[O-])c1 (centres undefined)	inconclusive [cytotoxic, single point]	–
Cc1ccc(-c2nc(NCCN3CCOCC3)c3ccccc3n2)cc1	inconclusive [cytotoxic, single point]	–
CCOC(=O)Cc1cc(=O)n2[nH]c(-c3ccccc3)cc2n1	inconclusive [rising, single point]	–
CC[N+]1(C)CCC(O)(/C=C/c2ccccc2)C(C(=O)/C=C/c2ccccc2)C1 (centres undefined)	active: 7.31 µM	–
N#Cc1c2n(c3c(=O)n(Cc4ccccc4Cl)cnc13)CCCC2	–	inactive: 0.477%
CN(Cc1ccccc1)S(=O)(=O)c1ccc(OCC(=O)N2CCOCC2)cc1	inconclusive [rising, single point]	–
O=C(c1ccco1)N1N=C(c2ccc(Br)cc2)CC1(O)C(F)(F)F (centres undefined)	inconclusive [cytotoxic, single point]	–
O=S(=O)(c1ccc2c(c1)OCCO2)N1CCN(c2ncnc3sccc23)CC1	inconclusive [cytotoxic, partial curve]	–
CNc1nc(NCc2ccc(C)cc2C)c2sccc2n1	inconclusive [cytotoxic, single point]	–
CCc1ccc2c(c1)NC(=O)C2(C)Cc1ccccc1OC (centres undefined)	inconclusive [cytotoxic, single point]	–
C(=C\c1ccccc1)/CN1CCN(C(c2cccc3ccccc23)c2nnnn2Cc2ccccc2)CC1 (centres undefined)	inconclusive [cytotoxic, single point]	–
O=C1C2Sc3[nH]c(=O)sc3C(c3cc([N+](=O)[O-])ccc3O)C2C(=O)N1c1ccccc1 (centres undefined)	–	inactive: 12.9%
O=S1(=O)C=C(Sc2nnc(-c3ccccc3)o2)c2ccccc21	active: 1.26 µM	–
Cc1onc(C(=O)NN)c1C(=O)N1CCN(C(c2ccccc2)c2ccccc2)CC1	inconclusive [cytotoxic, single point]	–
CCN(CC)C(=O)c1cccc(-c2csc(C(C)(O)c3ccc(OC)cc3)n2)c1 (centres undefined)	inconclusive [cytotoxic, full curve]	–
CCC1CCCCN1CC(C)(C)NS(=O)(=O)c1ccccc1 (centres undefined)	–	inactive: 7.16%
COc1cc(C(=O)/C=C/c2cccnc2)c([N+](=O)[O-])cc1OC	inconclusive [cytotoxic, full curve]	–

SMILES	Potency	activity, negative = toxicity
c1ccc(-c2cc(-c3ccncc3)nc3ccc4ccccc4c23)cc1	–	inactive: -29.9%
CSCC[C@H](NC(=O)c1ccc(Cl)c([N+](=O)[O-])c1)c1nc2ccccc2[nH]1	inconclusive [cytotoxic, single point]	–
COC(=O)c1c(N2C(=O)[C@H]3[C@@H](C2=O)[C@]2(C(=O)Nc4c(C)cc(C)cc42)N2CCC[C@@H]32)sc(C)c1C	inconclusive [cytotoxic, full curve, poor fit]	–
CCn1nnnc1-c1ccc(OC)c(S(=O)(=O)NCCc2ccccc2)c1	–	inactive: -0.464%
Cc1ccc2cccc(NS(=O)(=O)c3ccccc3)c2n1	inconclusive [cytotoxic, partial curve]	–
OC(c1ccccc1)c1nc(-c2cc3ccccc3o2)cs1 (centres undefined)	inconclusive [cytotoxic, single point]	–
CCN1/C(=C/C=C/c2sc3ccccc3[n+]2CC)Sc2ccccc21	active: 1.46 µM	–
Cc1cccc(C2(c3cccc(C)c3)CC2C(=O)Nc2ccc([N+](=O)[O-])cc2O)c1 (centres undefined)	inconclusive [cytotoxic, single point]	–
COc1ccc(C(=O)O/N=C(\N)Cc2ccc(Cl)c(Cl)c2)cc1OC	inconclusive [cytotoxic, single point]	–
Cc1cc(C)n(Cc2ccc(NC(=O)c3nn(C)cc3[N+](=O)[O-])cc2)n1	active: 6.31 µM	–
CCN(CC(=O)Nc1ccc(NC(C)=O)cc1)C(=O)c1cn(-c2ccccc2)nc1-c1cccs1	–	inactive: -14.6%
COc1ccc(CCC(=O)N(C)CC(=O)Nc2ccc(Cl)c(C(F)(F)F)c2)cc1	inconclusive [cytotoxic, single point]	–
CC(=O)N1CCN(c2ccc(C(N)=O)cc2[N+](=O)[O-])CC1	–	inactive: -2.54%
CC(=O)Nc1ccc(NC(=O)C(=O)NCC(c2ccco2)N2CCc3ccccc3C2)cc1 (centres undefined)	inconclusive [cytotoxic, single point]	–
O=C(Cn1cnc([N+](=O)[O-])n1)N/N=C/c1ccccc1O	inconclusive [cytotoxic, partial curve]	–
COc1cccc(C(=O)Nc2sc(C(C)C)cc2C(N)=O)c1OC	inconclusive [cytotoxic, single point]	–
O=C(CCN1CCOCC1)c1ccc(Cl)cc1	–	inactive: -4.29%
CCCC(O)(c1ccc(Br)cc1)C(CN1CCOCC1)c1ccc(Cl)cc1 (centres undefined)	inconclusive [cytotoxic, single point]	–
Cc1ccc(CN2CCSc3ccc(C(=O)NCC4CCCO4)cc32)cc1 (centres undefined)	–	inactive: -8.64%
O=C(Cn1nc(-c2ccc(Cl)cc2)ccc1=O)N1CCN(c2ccccc2)CC1	–	inactive: -13.7%
Cc1cc2c(cc(C(=O)OCC(=O)NCc3ccco3)n2C)s1	active: 10.3 µM	–
COC(=O)c1ccc(NC2=CC(=O)CC(C)(C)C2)cc1	inconclusive [cytotoxic, single point]	–
Oc1ccc(N=Cc2ccc(OCc3ccccc3)cc2)cc1	inconclusive [cytotoxic, single point]	–

SMILES	Potency	activity, negative = toxicity
COc1ccc(NC(=O)CN2C(=O)C(C)Oc3ccc(C)cc32)cc1 (centres undefined)	active: 20.6 µM	–
CN1CCC(N(C)C(=S)NCCc2ccccc2)CC1	–	inactive: 1.61%
CCN(CC(=O)NCc1ccc(F)cc1)C(=O)/C=C/c1ccc(OC)c(S(=O)(=O)NC(C)C)c1	inconclusive [cytotoxic, full curve]	–
Cc1ccccc1N(C(=O)c1snc(C(N)=O)c1N)C(C(=O)NCc1ccccc1)c1ccc(O)cc1 (centres undefined)	inconclusive [cytotoxic, partial curve]	–
CCOC(=O)C1=C(CSc2nc3ccccc3s2)NC(=O)NC1c1cccc([N+](=O)[O-])c1 (centres undefined)	–	inconclusive: -31% [cytotoxic]
CC(=O)Nc1ccc(S(=O)(=O)N2CCN(CC(O)COc3ccc4ccccc4c3)CC2)cc1 (centres undefined)	inconclusive [cytotoxic, single point]	–
CC1(C)NC(=O)N(CCCCOc2ccc3ccccc3c2Cl)C1=O	active: 10 µM	–
O=C(NC1CCCC1)C(c1ccc(F)cc1)N(C(=O)c1csnn1)c1ccccc1 (centres undefined)	inconclusive [cytotoxic, single point]	–
COc1ccccc1C1CCCN1Cc1nc(-c2ccc(C)s2)oc1C (centres undefined)	inconclusive [cytotoxic, single point]	–
COc1cc2c(cc1NC(=O)c1cncc(Br)c1)oc1ccccc12	inconclusive [cytotoxic, single point]	–
Clc1ccc(C2=Nn3c(nnc3-c3cc(-c4ccccc4)n[nH]3)SC2)cc1	inconclusive [cytotoxic, single point]	–
O=C(NC(=S)N(CCO)Cc1ccccc1)c1ccc(S(=O)(=O)N2CCCC2)cc1	inconclusive [rising, single point]	–
CC(=O)N1N=C2/C(=C/c3ccccc3)CCCC2C1c1ccccc1 (centres undefined)	inconclusive [cytotoxic, single point]	–
CC1Sc2ccc(S(=O)(=O)N3CCC(C(=O)Nc4ccc(Cl)cc4)CC3)cc2NC1=O (centres undefined)	inconclusive [cytotoxic, full curve, poor fit]	–
CCC/C(=C1/c2ccccc2C(=O)N1c1ccccc1)c1ccc2c(c1)OCCO2	inconclusive [cytotoxic, single point]	–
O=C(CCc1ccccc1)N/N=C/c1cc(Br)ccc1O	inconclusive [cytotoxic, partial curve]	–
NNC(=O)Cc1cccc2ccc(Cl)cc12	–	inactive: -20%
C#CCOCCOCCOCCNc1nc(N2CCN(C(=O)CCCCCCCCCCNC(=O)[C@H](CCCCN)n3cc(CCO)nn3)CC2)nc(N2CCN(C(=O)CCCCCCCCCCNC(=O)[C@@H]([C@H](C)O)n3cc(C)nn3)CC2)n1	–	inactive: -29.2%
CC12CCC(CC1)C(C)(C)O2	inconclusive [cytotoxic, single point]	–
O=C(COC(=O)C1(c2ccccc2F)CCCC1)NCc1cccs1	–	inactive: -1.49%
O=S(=O)(c1ccccc1)c1nc(NCc2cccnc2)sc1Cl	inconclusive [cytotoxic, partial curve]	–
CN1CCN(NC(=O)c2cc(-c3ccc(Br)s3)nc3ccccc23)CC1	active: 23.1 µM	–
Cc1ccc(N/N=C/c2ccc(N3CCOCC3)cc2)cc1C	–	inactive: 4.08%
